Experimental data: the supplement of paper PMC9151546
Many values rest on one well or one pass, so single values are uncertain.

How the values were obtained:
CHO-K1 [1] = assay: relative survival (nuclei to bead ratio vs DMSO control) (% of vehicle control); higher = more surviving cells
Procedure: (§1)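 Flow-cytometric in vitro micronucleus assay (Litron MicroFlow) in CHO-K1 cells in 96-well plates, 19 concentrations (4.5-200 µM, n=1 per concentration). Without S9, cells were exposed for 24 h and sampled at 48 h. With Aroclor 1254-induced rat liver S9, cells were exposed for 3-4 h and sampled at 27-28 h. Read-outs are %MN and %hypodiploid nuclei relative to nucleated events, and relative survival as the nuclei-to-bead ratio versus the 1% DMSO vehicle control (x100).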

CHO-K1 [2] = assay: hypodiploid nuclei frequency (% of nucleated events); higher = more hypodiploid events (aneugenic)
Procedure: as §1

CHO-K1 [3] = assay: micronucleus frequency (% of nucleated events); higher = more micronuclei (genotoxic)
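Throughout, for hypodiploid nuclei frequency (% of nucleated events): hypodiploid nuclei gated on a flow cytometer with 488 nm excitation after SYTOX Green staining, cultures at 37 °C, positive controls vinblastine without S9 and cyclophosphamide with S9.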
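Throughout, for micronucleus frequency (% of nucleated events): cells lysed with nuclei stained by SYTOX Green, then micronucleus-gated events counted against nucleated events by flow cytometry with 488 nm excitation.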
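Throughout, for relative survival (nuclei to bead ratio vs DMSO control): Lysed-cell nuclei stained with SYTOX Green and counted against counting beads by flow cytometry at 488 nm excitation, with vinblastine (no S9) and cyclophosphamide (plus S9) as positive controls.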

Nc1ccc(Cc2ccc(N)cc2)cc1 [4,4'-Methylenedianiline]
Conditions	hypodiploid nuclei frequency, CHO-K1 [2] [%]	micronucleus frequency, CHO-K1 [3] [%]	relative survival, CHO-K1 [1]
concentration: 4.5 (µM), S9 metabolic activation: with S9, exposure time: 3-4 hours	0.14	0.5	54.8
concentration: 4.5 (µM), S9 metabolic activation: without S9, exposure time: 24 hours	0.32	1.1	103
concentration: 5.63 (µM), S9 metabolic activation: with S9, exposure time: 3-4 hours	0.34	0.6	67
concentration: 5.63 (µM), S9 metabolic activation: without S9, exposure time: 24 hours	0.48	0.94	112
concentration: 7.04 (µM), S9 metabolic activation: with S9, exposure time: 3-4 hours	0.18	0.86	74.2
concentration: 7.04 (µM), S9 metabolic activation: without S9, exposure time: 24 hours	0.52	1.16	97
concentration: 8.8 (µM), S9 metabolic activation: with S9, exposure time: 3-4 hours	0.1	0.6	77.6
concentration: 8.8 (µM), S9 metabolic activation: without S9, exposure time: 24 hours	0.28	1.18	122
concentration: 11 (µM), S9 metabolic activation: with S9, exposure time: 3-4 hours	0.2	0.86	75.1
concentration: 11 (µM), S9 metabolic activation: without S9, exposure time: 24 hours	0.72	1.28	118
concentration: 13.7 (µM), S9 metabolic activation: with S9, exposure time: 3-4 hours	0.26	0.9	73.1
concentration: 13.7 (µM), S9 metabolic activation: without S9, exposure time: 24 hours	0.54	1.46	118
concentration: 17.2 (µM), S9 metabolic activation: with S9, exposure time: 3-4 hours	0.18	0.62	72.9
concentration: 17.2 (µM), S9 metabolic activation: without S9, exposure time: 24 hours	0.26	0.96	107
concentration: 21.5 (µM), S9 metabolic activation: with S9, exposure time: 3-4 hours	0.16	0.74	77.4
concentration: 21.5 (µM), S9 metabolic activation: without S9, exposure time: 24 hours	0.58	1	152
concentration: 26.8 (µM), S9 metabolic activation: with S9, exposure time: 3-4 hours	0.26	1.24	83.3
concentration: 26.8 (µM), S9 metabolic activation: without S9, exposure time: 24 hours	0.52	1.28	125
concentration: 33.6 (µM), S9 metabolic activation: with S9, exposure time: 3-4 hours	0.24	0.78	85.8
concentration: 33.6 (µM), S9 metabolic activation: without S9, exposure time: 24 hours	0.48	1.4	117
concentration: 41.9 (µM), S9 metabolic activation: with S9, exposure time: 3-4 hours	0.2	1.08	83.3
concentration: 41.9 (µM), S9 metabolic activation: without S9, exposure time: 24 hours	0.32	0.88	113
concentration: 52.4 (µM), S9 metabolic activation: with S9, exposure time: 3-4 hours	0.18	0.96	81.8
concentration: 52.4 (µM), S9 metabolic activation: without S9, exposure time: 24 hours	0.52	0.64	87.9
concentration: 65.5 (µM), S9 metabolic activation: with S9, exposure time: 3-4 hours	0.22	0.96	75.8
concentration: 65.5 (µM), S9 metabolic activation: without S9, exposure time: 24 hours	0.62	1.3	101
concentration: 81.9 (µM), S9 metabolic activation: with S9, exposure time: 3-4 hours	0.28	0.82	90
concentration: 81.9 (µM), S9 metabolic activation: without S9, exposure time: 24 hours	0.82	1	119
concentration: 102 (µM), S9 metabolic activation: with S9, exposure time: 3-4 hours	0.3	0.92	81.2
concentration: 102 (µM), S9 metabolic activation: without S9, exposure time: 24 hours	1.02	1.06	108
concentration: 128 (µM), S9 metabolic activation: with S9, exposure time: 3-4 hours	0.2	0.72	110
concentration: 128 (µM), S9 metabolic activation: without S9, exposure time: 24 hours	0.74	1	112
concentration: 160 (µM), S9 metabolic activation: with S9, exposure time: 3-4 hours	0.1	0.98	102
concentration: 160 (µM), S9 metabolic activation: without S9, exposure time: 24 hours	1.08	1.3	105
concentration: 200 (µM), S9 metabolic activation: with S9, exposure time: 3-4 hours	0.2	0.7	108
concentration: 200 (µM), S9 metabolic activation: without S9, exposure time: 24 hours	1.18	2.02	85.9

Nc1ccc(Oc2ccc(N)cc2)cc1 [4,4'-Oxydianiline]
Conditions	hypodiploid nuclei frequency, CHO-K1 [2] [%]	micronucleus frequency, CHO-K1 [3] [%]	relative survival, CHO-K1 [1]
concentration: 4.5 (µM), S9 metabolic activation: with S9, exposure time: 3-4 hours	0.4	3.48	79.2
concentration: 4.5 (µM), S9 metabolic activation: without S9, exposure time: 24 hours	0.88	2.22	95.1
concentration: 5.63 (µM), S9 metabolic activation: with S9, exposure time: 3-4 hours	0.3	3.36	77.4
concentration: 5.63 (µM), S9 metabolic activation: without S9, exposure time: 24 hours	1	2	86
concentration: 7.04 (µM), S9 metabolic activation: with S9, exposure time: 3-4 hours	0.44	2.98	87.1
concentration: 7.04 (µM), S9 metabolic activation: without S9, exposure time: 24 hours	0.84	2.1	78.8
concentration: 8.8 (µM), S9 metabolic activation: with S9, exposure time: 3-4 hours	0.78	3.62	84.7
concentration: 8.8 (µM), S9 metabolic activation: without S9, exposure time: 24 hours	1.34	1.5	98.3
concentration: 11 (µM), S9 metabolic activation: with S9, exposure time: 3-4 hours	0.32	2.34	88.4
concentration: 11 (µM), S9 metabolic activation: without S9, exposure time: 24 hours	1.08	3.08	86.4
concentration: 13.7 (µM), S9 metabolic activation: with S9, exposure time: 3-4 hours	0.54	2.98	89.8
concentration: 13.7 (µM), S9 metabolic activation: without S9, exposure time: 24 hours	1.08	2.16	93.4
concentration: 17.2 (µM), S9 metabolic activation: with S9, exposure time: 3-4 hours	0.36	2.32	90.8
concentration: 17.2 (µM), S9 metabolic activation: without S9, exposure time: 24 hours	1.3	1.58	103
concentration: 21.5 (µM), S9 metabolic activation: with S9, exposure time: 3-4 hours	0.4	2.86	83.4
concentration: 21.5 (µM), S9 metabolic activation: without S9, exposure time: 24 hours	1.22	1.74	102
concentration: 26.8 (µM), S9 metabolic activation: with S9, exposure time: 3-4 hours	0.32	1.98	101
concentration: 26.8 (µM), S9 metabolic activation: without S9, exposure time: 24 hours	1.54	3.22	86.7
concentration: 33.6 (µM), S9 metabolic activation: with S9, exposure time: 3-4 hours	0.44	2.8	92.7
concentration: 33.6 (µM), S9 metabolic activation: without S9, exposure time: 24 hours	1.28	2.68	88.6
concentration: 41.9 (µM), S9 metabolic activation: with S9, exposure time: 3-4 hours	0.52	2.54	99.5
concentration: 41.9 (µM), S9 metabolic activation: without S9, exposure time: 24 hours	1.12	1.8	80.3
concentration: 52.4 (µM), S9 metabolic activation: with S9, exposure time: 3-4 hours	0.4	1.9	90.5
concentration: 52.4 (µM), S9 metabolic activation: without S9, exposure time: 24 hours	1.42	2.52	90.1
concentration: 65.5 (µM), S9 metabolic activation: with S9, exposure time: 3-4 hours	0.32	2.5	86.8
concentration: 65.5 (µM), S9 metabolic activation: without S9, exposure time: 24 hours	1.3	2.72	79.7
concentration: 81.9 (µM), S9 metabolic activation: with S9, exposure time: 3-4 hours	0.24	2.57	71.3
concentration: 81.9 (µM), S9 metabolic activation: without S9, exposure time: 24 hours	1.74	3.22	68.6
concentration: 102 (µM), S9 metabolic activation: with S9, exposure time: 3-4 hours	0.28	2.74	97
concentration: 102 (µM), S9 metabolic activation: without S9, exposure time: 24 hours	1.6	4	74.8
concentration: 128 (µM), S9 metabolic activation: with S9, exposure time: 3-4 hours	0.3	2	103
concentration: 128 (µM), S9 metabolic activation: without S9, exposure time: 24 hours	2.32	3.68	63.1
concentration: 160 (µM), S9 metabolic activation: with S9, exposure time: 3-4 hours	0.28	2.08	98.1
concentration: 160 (µM), S9 metabolic activation: without S9, exposure time: 24 hours	2.3	3.42	69.3
concentration: 200 (µM), S9 metabolic activation: with S9, exposure time: 3-4 hours	0.34	1.76	87.7
concentration: 200 (µM), S9 metabolic activation: without S9, exposure time: 24 hours	2.2	3.84	46.3
